Article PMC4336329 (PLoS ONE, 2015)
Hit rate of the full screen: of about 310,000 compounds, about 2,200 (0.71%) showed an effect of 50% or more. The effect is printed as a negative number. The list shows a part of the results.

The molecules below were run against human ether-à-go-go-related gene (hERG) potassium channel (human, UniProt Q12809) (assay: primary screen, population patch clamp on CHO cells stably expressing hERG).
Chain of human ether-à-go-go-related gene (hERG) potassium channel (Q12809 whole entry, looked up): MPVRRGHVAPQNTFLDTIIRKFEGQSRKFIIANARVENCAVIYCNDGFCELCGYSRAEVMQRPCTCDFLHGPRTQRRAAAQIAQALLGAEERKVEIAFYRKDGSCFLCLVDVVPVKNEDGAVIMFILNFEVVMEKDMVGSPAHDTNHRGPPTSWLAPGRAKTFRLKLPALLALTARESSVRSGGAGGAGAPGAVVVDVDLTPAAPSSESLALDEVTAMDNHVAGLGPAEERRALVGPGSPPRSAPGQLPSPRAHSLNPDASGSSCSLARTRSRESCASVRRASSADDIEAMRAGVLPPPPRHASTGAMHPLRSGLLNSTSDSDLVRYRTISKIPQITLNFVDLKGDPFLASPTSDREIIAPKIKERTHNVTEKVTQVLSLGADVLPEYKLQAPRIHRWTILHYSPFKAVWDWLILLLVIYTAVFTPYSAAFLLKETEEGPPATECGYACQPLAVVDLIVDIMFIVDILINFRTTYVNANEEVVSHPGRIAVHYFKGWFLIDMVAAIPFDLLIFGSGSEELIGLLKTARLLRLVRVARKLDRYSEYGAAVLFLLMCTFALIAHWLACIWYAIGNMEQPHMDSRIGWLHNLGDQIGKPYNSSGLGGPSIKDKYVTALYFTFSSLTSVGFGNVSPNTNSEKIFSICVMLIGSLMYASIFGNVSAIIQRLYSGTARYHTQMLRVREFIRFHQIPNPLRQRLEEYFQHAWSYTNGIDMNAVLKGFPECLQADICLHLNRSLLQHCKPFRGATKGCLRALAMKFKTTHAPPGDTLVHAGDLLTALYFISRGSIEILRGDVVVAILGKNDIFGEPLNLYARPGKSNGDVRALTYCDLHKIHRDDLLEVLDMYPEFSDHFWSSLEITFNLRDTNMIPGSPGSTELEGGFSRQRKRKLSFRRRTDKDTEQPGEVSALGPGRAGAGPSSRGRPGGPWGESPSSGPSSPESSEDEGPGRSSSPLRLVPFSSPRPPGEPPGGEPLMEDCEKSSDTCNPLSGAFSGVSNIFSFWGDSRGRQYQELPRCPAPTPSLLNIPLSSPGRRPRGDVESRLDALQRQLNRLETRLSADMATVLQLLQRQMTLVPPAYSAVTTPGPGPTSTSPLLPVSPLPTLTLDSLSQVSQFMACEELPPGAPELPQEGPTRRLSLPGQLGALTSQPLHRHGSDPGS

| SMILES | hERG current change (%, negative = inhibition) at 1uM [%] |
| --- | --- |
| CCN(CC)CCN(C(=O)c1ccc2c(c1)OCCO2)c1nc2c(Cl)cccc2s1.Cl | -16.9 |
| O=C(NNC(=O)c1cccs1)c1ccc(Br)o1 | 20.7 |
| COCCN(CCOC)Cc1cc(=O)oc2cc3c(cc12)CCC3 | 7.06 |
| S=c1[nH]cnc2scc(-c3ccc(Br)cc3)c12 | 0.229 |
| Cc1cc(C)c(NC(=O)COc2nncc3ccccc23)c(C)c1 | 8.12 |
| COc1ccc(CN2CCSCC2)c(OC)c1C | 11.6 |
| O=C(CSc1ccc2c(c1)OCCO2)NCC1CCCO1 (stereo not shown) | 10.1 |
| O=C(O)/C(=C\c1cccc(C(F)(F)F)c1)c1ccc(S(=O)(=O)N2CCCC2)s1 | 20.2 |
| COc1cccc(CN2CCNC(=O)C2CC(=O)N(C)CCC2CCOCC2)c1 (stereo not shown) | 13.8 |
| COc1ccc(CCNC(=O)Nc2ccccc2[N+](=O)[O-])cc1 | 8.1 |
| Cc1ccc(N(C(=O)c2ccccn2)C2(C(=O)NC3CCCC3)CCCCC2)cc1 | 16.9 |
| O=S(=O)(NC1CCN(S(=O)(=O)c2c(F)cccc2F)C1)c1ccc2c(c1)OCCO2 (stereo not shown) | 8.29 |
| S=C(NCc1ccco1)Nc1cccc(Cl)c1 | -6.53 |
| CCOC(=O)Cc1csc(NC(=O)Nc2cccc(OC)c2)n1 | 8.01 |
| COc1cc(/C=C/C(=O)N[C@@H](Cc2c[nH]c3ccccc23)C(=O)O)ccc1O | 9.64 |
| CCc1cccc(NC(=O)CCCn2c(=O)[nH]c3ccsc3c2=O)c1 | 19.3 |
| COc1ccc(C(C)NC(=S)NC2CCCC2)cc1OC (stereo not shown) | 5.57 |
| CCOc1cc(/C=N/N=C2/NC(=O)C(CC(=O)O)S2)ccc1OCc1ccc(Cl)cc1 (stereo not shown) | 4.76 |
| O=C(CSCc1cc(=O)[nH][nH]1)Nc1ccc(F)cc1 | 36.6 |
| O=C(NCCCNC(=O)c1cc(Cl)ccc1Cl)c1cnccn1 | 8.38 |
| O=C(COC(=O)C1(c2ccccc2F)CCCC1)NCc1ccc2c(c1)OCO2 | 2.35 |
| CCOC(=O)C1=C(COC(=O)CCNS(=O)(=O)c2ccc(C)c(C)c2)NC(=O)NC1C (stereo not shown) | 10.7 |

| SMILES | hERG current change (%, negative = inhibition) at 1uM [%] |
| --- | --- |
| Cc1ccc(S(=O)(=O)N2CCCCC2)cc1NC(=O)Cn1ccc(C(F)(F)F)n1 | -3.5 |
| CCOC(=O)c1sc(NC(=O)C2=COCCO2)c(C#N)c1C | 13.2 |
| COc1cc2c(cc1OC)CC(C(=O)NCc1ccccc1)NC2 (stereo not shown) | 14.5 |
| Cc1cc(C=O)c(C)n1C1CCCCC1 | 8.41 |
| CCCS(=O)(=O)N1CCN(c2ccccc2F)CC1 | 14 |
| O=C(Cc1ccc(Br)cc1)OCC(=O)N1CCc2ccccc2C1 | 13.8 |
| CCOc1c(C)cnc2c1c(=O)n(Cc1ccccc1Cl)c(=O)n2C | 14.1 |
| COc1cc(OC)c(OC)cc1/C=C1/C(=O)N=C(N)N1C | -7.58 |
| O=C(Cn1c(S(=O)(=O)Cc2ccccc2)nc2ccccc21)N1CCCCC1 | -0.347 |
| Cc1ccc(S(=O)(=O)NC(=O)c2cccc(C)c2)cc1 | 10.3 |
| Cc1ccc(C(C(=O)NCc2ccco2)N(C(=O)CNC(=O)c2cccs2)c2ccc(C)cc2)cc1 (stereo not shown) | 29.1 |
| Cc1cc(C)cc(C(=O)NCC(=O)NCCc2c[nH]c3ccccc23)c1 | 14.5 |
| COc1cc(S(=O)(=O)Nc2ncn[nH]2)ccc1Cl | 13.5 |
| Cc1ccccc1CNC(=O)c1cc(COc2ccc(F)cc2F)on1 | 12.1 |
| COC(=O)c1ccc2c(=O)n(Cc3ccc(C(=O)NCCCN4CCC(C)CC4)cc3)c(=S)[nH]c2c1 | 11.6 |
| Cc1ccc(NC(=O)CSc2nncn2-c2ccccn2)cc1Cl | 16.5 |
| CCN(C(=O)CN1C(=O)NC(CCSC)C1=O)C1CCS(=O)(=O)C1 (stereo not shown) | 2.9 |
| Cc1cccc(N2C(=O)/C(=C\c3ccc(OC(F)F)cc3)c3ccccc3C2=O)c1 | 11.9 |
| CC(C)(C)C(=O)OC/C(N)=N/OC(=O)c1ccccc1 | 11 |
| CN(C(=O)COC(=O)c1ccc([N+](=O)[O-])cc1Cl)C1CCCCC1 | -8.94 |
| Cc1c(S(=O)(=O)Nc2cccc(Cl)c2)c(=O)n(C)c(=O)n1C | 10.7 |
| Cc1cc(S(=O)(=O)N2CC(=O)N(CCc3ccccc3)C(=O)C2)ccc1F | 13.7 |

| SMILES | hERG current change (%, negative = inhibition) at 1uM [%] |
| --- | --- |
| Cc1cccc(N2C(=O)C(Cl)=C(Nc3c(C)n(C)n(-c4ccccc4)c3=O)C2=O)c1C | 15.3 |
| COc1ccc(-c2oc3ccccc3c2C(=O)OCc2ccccc2)cc1 | 14 |
| CC(=O)Nc1cccc(NC(=O)CS(=O)(=O)c2cn(CC(=O)N(C(C)C)C(C)C)c3ccccc23)c1 | 11.9 |
| COc1cc(C2Sc3ccccc3NC3=C2C(=O)OC3)cc(OC)c1OC (stereo not shown) | 0.302 |
| COc1ccc(CNC(=O)CSc2nnc(NC(=O)C3CC3)s2)cc1 | 11.5 |
| Cc1cc(NC(=O)CCC(=O)N(CC(=O)NC2CCCC2)c2ccc(Cl)c(Cl)c2)no1 | 0.544 |
| CCCCCCCc1c(C#N)c(N)[nH]c(=S)c1C#N | 15.7 |
| O=Cc1cccc(OC(=O)/C=C/c2ccco2)c1 | 16.1 |
| CCCCCC(=O)N1CC2(CC(c3cccc(NC(=O)CC)c3)=NO2)C[C@H]1C(N)=O (stereo partly shown) | 3.29 |
| C/C(=C\C(=O)c1cccnc1)Nc1ccc(O)cc1 | -11.6 |
| Cc1cc(NC(=O)CSc2nnc(C3COc4ccccc4O3)n2C)no1 (stereo not shown) | 6.02 |
| COc1ccc(C(=O)NC2CC(C)(C)Cc3occc32)cc1 (stereo not shown) | -7.54 |
| CCCCCCCCCCCCCCCC[n+]1ccc(C(N)=O)cc1.[Br-] | 11.3 |
| CCOc1ccccc1NC(=O)CN(c1ccc(OC)cc1)S(=O)(=O)c1c(C)noc1C | 2.41 |
| O=C(NC1CCCC1)c1ccc(CS(=O)Cc2ccccc2Cl)o1 (stereo not shown) | -9.85 |
| COCC1CCCN(C(=O)c2ccc3oc(CCCc4ccccc4)nc3c2)C1 (stereo not shown) | 0.265 |
| CCc1cc(Cn2nc(-c3ccccc3)cc2C(=O)NCC2CC2)on1 | -15.4 |
| CCN(CC(=O)N1CCOCC1)S(=O)(=O)c1ccc2ccccc2c1 | 18.4 |
| COc1cccc(CN2CCN(S(=O)(=O)c3ccc(NC(C)=O)cc3)CC2)c1OC.O=C(O)C(=O)O | 10.4 |
| CC(C)(C)n1nnnc1C(c1cccs1)N1CCN(c2ccccc2)CC1 (stereo not shown) | -0.168 |
| N#Cc1c(C#N)c(O)c2ccccc2c1O | 11.5 |
| Nc1nnn(CC(=O)N/N=C/c2cccc(Cl)c2)n1 | 6.17 |

| SMILES | hERG current change (%, negative = inhibition) at 1uM [%] |
| --- | --- |
| CC1(C)CC(=O)C=C(Nc2ccc3c(c2)OCCO3)C1 | 9.09 |
| O=C(N/C(=C\c1ccc(F)cc1)C(=O)N1CCCCCC1)c1ccccc1 | -0.76 |
| COc1ccccc1CC(=O)Nc1ccc(-c2noc(COc3cccc(C)c3C)n2)cc1 | 15 |
| COc1ccc(-n2c(=O)c3c4c(sc3n(CC(N)=O)c2=O)CCCCC4)cc1 | 12.7 |
| Cc1ccc2c(c1)cc1c(=O)n(CC(=O)N3CCCC3)nc(C)n12 | 20.1 |
| NC1=NC2=C(CCCC2)C2(CCCCC2)S1 | -3.29 |
| CCOC(=O)c1cnn(-c2ccccc2)c1-n1cccc1C(=O)C(=O)Nc1ccc(OC)cc1 | 9.89 |
| O=C(CCn1c(=O)oc2ccccc21)Nc1nc2ccccc2s1 | -1.36 |
| CC1=NN(c2nc(-c3ccc(C)cc3)cs2)C(=O)C1N=Nc1cccc(C)c1 (stereo not shown) | 9.3 |
| O=C1c2ccccc2C2(c3ccccc3)NCCN12 (stereo not shown) | 13 |
| CC(C)CC1Nc2ccc(C(=O)NCCCN3CCCCC3C)cc2NC1=O (stereo not shown) | 8.78 |
| COc1ccc(C(=O)NCc2nnc(SCC(=O)Nc3ccccc3F)o2)cc1 | -6.04 |
| Cc1c(NC(=O)C(C)OC(=O)CCc2ccccc2)c(=O)n(-c2ccccc2)n1C (stereo not shown) | 10.8 |
| Cc1csc2ncnc(N3CCN(S(=O)(=O)c4cccc(C(F)(F)F)c4)CC3)c12 | -0.0341 |
| COc1ccc(CC(=O)Oc2ccccc2[N+](=O)[O-])cc1 | 10.8 |
| COc1cccc(N2CCN(CC(=O)Nc3ccnn3C3CCCC3)CC2)c1 | 6.03 |
| CC(C)N1CC(C(=O)Nc2cccc([N+](=O)[O-])c2)CC1=O (stereo not shown) | 14.6 |
| O=C(COC(=O)CCC(=O)c1cccs1)NCc1ccccc1 | 25.6 |
| COc1ccccc1NS(=O)(=O)c1cc(NC(=O)c2cc3ccccc3oc2=O)ccc1C | 12.3 |
| O=C(CN1C(=O)c2cccc3cccc1c23)N1CCN(c2cccc(Cl)c2)CC1 | 0.681 |
| CC(=O)c1cccc(NC(=O)c2ccc3c(c2)C(=O)N(Cc2cccnc2)C3=O)c1 | 11.7 |
| COc1ccc(S(=O)(=O)N2CCN(c3ccc(F)cc3)CC2)cc1C(=O)N1CCOCC1 | 14 |
